Read counts are not given, so values of variants with three or more changes are uncertain.

These results are taken from the RNAGym collection of RNA variant scans (doi:10.1093/nar/gkz1192).

First the molecules themselves.
B1: CPEB3 Ribozyme (parent)
chain: UAACAGGGGGCCACAGCAGAAGCGUUCACGUCGCAGCCCCUGUCAGAUUCUGGUGAAUCUGCGAAUUCUGCUGUAUAUCUC

In this series the parent is B1. The series is described as follows: self-cleavage, relative activity (ratio to wild type); higher = more cleavage; in vitro, sequencing. The procedure, abridged:
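For each CPEB3 ribozyme variant, relative activity is its cleaved/total read fraction divided by the unmutated ribozyme's. Barcoded error-prone PCR libraries were transcribed by T7 RNA polymerase (5 hours, 37°C) and held in DNase I for 15 min before an EDTA stop, with cleavage occurring throughout. Template-switching reverse transcription and Illumina sequencing were used to read the RNAs. A 5-read minimum applied, and results are the mean of three batches.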
As to G10C G53C A56U, the self-cleavage is 0.12.

With G10U U48C U74C, the self-cleavage stood at 0.08. As to G10C A21U U54C A77C, the self-cleavage is 0.12. On to C11A A18G U26C A45G U58A U72A, for which the self-cleavage was 0.04. For G10A U41C U72A the value was 0.2; for G10C U49C U51C, 0.11; for C11A A13G G19A A21G U25G U67C U78A, 0.02. As for C11G A13U A18G A21G U66C A75G, the self-cleavage is 0.15. For G10A G36A U43C the value was 0.05; for C11A U49C A77G, 0.11; for G10C A21G C79U, 0.31.

Consider G10C U41A U58A, for which the self-cleavage was found to be 0.21.

On to C11A A35U U54C, for which the self-cleavage worked out at 0.05. For the variant C11A A47G U48C A65U, the self-cleavage was found to be 0.04. On to G10A U25C A65G U69A, for which the self-cleavage came out at 0.2. For the variant G10C U26A U58C A65G U78C, the self-cleavage stood at 0.05. On to C11A A13G C44U, for which the self-cleavage stood at 0.04.

Regarding G10U U51A G63A, the self-cleavage is 0.14. Regarding G10A A28G A35U U51C, the self-cleavage is 0.11. On to G10A U31A U78C, for which the self-cleavage came out at 0.06. As to C11A G24A U51A U54A, the self-cleavage was determined as 0.06.

Turning to G10A U31C U60A A64G U72A, the self-cleavage amounted to 0.1.

For G10A C14U A20G A28G A35G G42C G70A, the self-cleavage was determined as 0.04.

As for G10A U26C A28G C40U A57G U69A, the self-cleavage came out at 0.05. Turning to C11A A18U U26A U51C A57U U72A, the self-cleavage came to 0.05. Regarding C11A U49C A75G, the self-cleavage was determined as 0.05.

G10C A64G U72A: the self-cleavage came out at 0.16. As for C11A A21G U43C U66C A77U U78A, the self-cleavage worked out at 0.06.

For the variant G10C U51C A57U, the self-cleavage stood at 0.14. Consider G10A U67C U74C, for which the self-cleavage was 0.04.

As for G10A U25C U66C, the self-cleavage stood at 0.05. In the case of G10A U25C U48C U69C, the self-cleavage was 0.1. In the case of G10U U25C C71G A75U, the self-cleavage amounted to 0.05. As to G10A U25C A35G, the self-cleavage was found to be 0.16. For the variant G10A A64G U72A, the self-cleavage came out at 0.05.

For G10U A28G C44U, the self-cleavage was 0.32. Consider G10C A28U U43A G53A, for which the self-cleavage is 0.19. On to G10A A20U U41A U48C A57G, for which the self-cleavage stood at 0.08. For the variant G10A U41C A64G U69C, the self-cleavage came to 0.17.

As for C11G A13G U43A U60C C62U, the self-cleavage was determined as 0.06.

As for G10A A35G C39U, the self-cleavage stood at 0.38. As to G10C U41A A64G, the self-cleavage stood at 0.19. Regarding C11A A20G U26C G30C, the self-cleavage was 0.04. Consider G10A U25C U58A U80C, for which the self-cleavage worked out at 0.07. Regarding G10A G46U A64G A65G, the self-cleavage came out at 0.14. Next, C11A A21G G55U A56G A65G U67C: 0.04. Next, G10A A35U A47G A64U U74C: 0.05; G10U A13G A28G A35U U67C U72A: 0.13.

With C11A A21U U51A U69G, the self-cleavage came to 0.05. In the case of G10A A21G A47G U76A U78C, the self-cleavage stood at 0.05. Regarding C11A A20U U26C U41G G42U, the self-cleavage worked out at 0.05. Next, G10A A28U U41C U49C: 0.12; G10A G30A U43G: 0.04; G10A U41A U54C A57G U69C: 0.05. Next, G10U A13U C40U A45U U48A U60A U80C: 0.04. In the case of G10A U25A U54A C62G, the self-cleavage is 0.09.

As to G10A U43C U54C U74C, the self-cleavage was determined as 0.19. G10A U25A U54A: the self-cleavage turned out to be 0.32.

In the case of C11A U48C A57G U72G A77U, the self-cleavage is 0.24.

As for G10C G42U U66A U80C, the self-cleavage was determined as 0.18. As to G10A A47G U76A U80A, the self-cleavage stood at 0.33. For C11A A56G U58C U72C the value was 0.07; for G10A C11A U26A U48C U69C U72G, 0.04; for G10A A28G G33A U54C, 0.04. Take C11A C12U U31A U48C U51A C62U: the self-cleavage stood at 0.14. For G10U A15G A21C U31C A45G A57G, the self-cleavage was 0.03. As to G10A U41C U51A, the self-cleavage was 0.52. Next, C11A U51A A56G A75G: 0.08.

Consider G10A U41C A45U U76A, for which the self-cleavage is 0.29. As to C11A A20G A35U U78C, the self-cleavage was 0.29. Regarding G10C U54G A57G U66C, the self-cleavage was determined as 0.08.

For the variant G10C U41C U58A, the self-cleavage is 0.09.

In the case of C11A A35G A45U U54G A56G, the self-cleavage was determined as 0.22.

Consider G10U A15C U26C G30A U49C A56G, for which the self-cleavage came to 0.25. With G10A U41C A56G U69A A77G, the self-cleavage was 0.03.

With G10A G24A U54C U72A U80C, the self-cleavage came to 0.1. In the case of G10C C40U U51A, the self-cleavage was found to be 0.06.

For the variant C11A A21G U74C, the self-cleavage worked out at 0.54. Take G10C A47G U51C: the self-cleavage came to 0.08. As to G10A A21G U25C U31C U51C U60C, the self-cleavage was determined as 0.03. Turning to C11A C12A U26A U31A U51C, the self-cleavage is 0.04. Consider G10C U26C A47G A64C U69A, for which the self-cleavage was found to be 0.09.

Take C11A A21G U69C: the self-cleavage came to 0.45. Regarding C11A A21G U69A, the self-cleavage came out at 0.35. In the case of G10A A28G G30C U48C, the self-cleavage came out at 0.08. For G10A U60C U72C, the self-cleavage stood at 0.15. On to C11A A13U A15U A18C C59A U80A, for which the self-cleavage worked out at 0.07. G10A U48C A57G U67C U76A: the self-cleavage was determined as 0.12. For C11A A18C A56U A64U the value was 0.08; for G10A C40A U60C A65G, 0.14; for G10C U26C U51C, 0.2.

Turning to G10A U43G U80C, the self-cleavage stood at 0.06.

For the variant C11A A18G A35U A47G U58A U72C, the self-cleavage was determined as 0.05. Next, G10C U67C U74C A75U: 0.1; G10A U25C U67A G70A: 0.05. Take G10C A28G A47G A65G G70U: the self-cleavage was 0.05. As for G10U C23G A28G C38U U51C U69C, the self-cleavage worked out at 0.07.

For the variant C11A G52C A57G U78C, the self-cleavage is 0.14.

On to G10C A21G U25C, for which the self-cleavage was determined as 0.32.

In the case of C11A A13G U66C U72C, the self-cleavage came to 0.31. For G10C A20G G36A A45G, the self-cleavage is 0.2. Regarding G10C G42U U72C, the self-cleavage came to 0.14. G10A C39A U80C: the self-cleavage was determined as 0.25. With G10C U43C A45G C59U, the self-cleavage amounted to 0.17. G10A U26G A28G: the self-cleavage stood at 0.3. As for G10C U26C U60C, the self-cleavage was found to be 0.17.

Turning to G10A C71U U72C, the self-cleavage was 0.07. For the variant G10U U41C U72G, the self-cleavage amounted to 0.13. Consider G10A U26A A47G U76C, for which the self-cleavage was determined as 0.05. For the variant G10A C14U U25C A56G U58A, the self-cleavage is 0.13.

In the case of G10C A28G A35G U49C, the self-cleavage was found to be 0.1. As to G10A A64U U72A, the self-cleavage turned out to be 0.05.

Take G10A C50U U60C U69A: the self-cleavage amounted to 0.24. Turning to G10C C17U A28G G30A, the self-cleavage is 0.06. As for G10C A20G U25C G55A A57G, the self-cleavage was 0.04.

As for G10C U25C U43A U51A U60G U78C, the self-cleavage is 0.06. As for G10C A15G A28U, the self-cleavage was determined as 0.03.

For the variant G10A C11G C59U A64C, the self-cleavage was found to be 0.06. G10A G19C U43C U58C U74C C79U: the self-cleavage turned out to be 0.03.

As for C11A A15G A21G U60C, the self-cleavage is 0.34. On to G10A U25C G30A U41C A57G A75G, for which the self-cleavage came out at 0.12. Regarding C11A A15G A20U A45G, the self-cleavage was determined as 0.36. As to G10U U25A U26A G53A U67C, the self-cleavage was found to be 0.04. Next, G10A C12U A15G A21G A64G U78A: 0.05; G10A U26C C38U: 0.28.

As for G10U A15U U31G U54A, the self-cleavage came to 0.21. G10C G36A U43A U51A U72C: the self-cleavage amounted to 0.18. C11A A13G A15G A75U: the self-cleavage worked out at 0.7.

For G10A A21G U43C U60C, the self-cleavage is 0.14. Next, C11G A13U A20G: 0.22. In the case of G10U U25C C68U U72A, the self-cleavage came to 0.08. Next, G10A A21G G53C G61A U72C: 0.07. Next, G10U U26C U41C U72C: 0.03; G10U U41C U58C: 0.4; C11G A13G A18G U49C U51A U72A U78A: 0.06.

In the case of C11A C40A A45U U76A U80A, the self-cleavage amounted to 0.03. In the case of G10U A18C U31C U60A, the self-cleavage worked out at 0.12. Regarding G10A G33A U60A A64U U67C U80C, the self-cleavage was found to be 0.04.

As for G10C A21G U25C A47U A64U A77G, the self-cleavage was 0.03.

As to G10A U25A U60C U66A A75U, the self-cleavage was 0.28. Take G10C U51A A56U: the self-cleavage came out at 0.07. For the variant G10C A45U U58C U67C, the self-cleavage stood at 0.11. As to C11A A15G U54C U80C, the self-cleavage was determined as 0.25.

For G10A C12U A28G A35G U48C C62U, the self-cleavage was 0.09. Turning to C11A A13G A15C U31C A35G A57G U78A, the self-cleavage stood at 0.07. For G10C U25C U49C U58C the value was 0.15; for G10U A13U A56G U58A C81U, 0.05. On to G10C A15U U60A, for which the self-cleavage amounted to 0.43. In the case of C11A A21G A47G U76A, the self-cleavage is 0.06. As to C11A A28G U58C U78C, the self-cleavage was found to be 0.44. Regarding G10C U54A A56G, the self-cleavage worked out at 0.18. As for G10C A28G A45G U78A, the self-cleavage stood at 0.12.

For the variant G10C A21G U51A, the self-cleavage was 0.05.

Turning to G10A A35G U41G, the self-cleavage is 0.17.

As to C11A U26C C39A U60C U78C, the self-cleavage is 0.16. With G10A C17A G30A A57G, the self-cleavage turned out to be 0.05. Regarding G10U A47G A64G G70C, the self-cleavage came out at 0.07.

With C11A A13G A20G A56U, the self-cleavage came out at 0.1. In the case of C11A A35C A47G U51C U58C C81U, the self-cleavage came out at 0.12. Turning to G10A U25G A28G C62U A64G, the self-cleavage is 0.04. For G10A A28G A45G U60C, the self-cleavage worked out at 0.05. On to G10U A21G C38U U41A U43C U78C, for which the self-cleavage amounted to 0.02. In the case of G10A A56G G70C, the self-cleavage was found to be 0.19. Next, G10A U43C A45U A57G: 0.2; C11A A15G G33A U41A U69C: 0.08; G10A C14U A21G: 0.06.

As to G10A A47G A56G A75U U80C, the self-cleavage stood at 0.06.
